Experimental data as given in paper PMC4336329 (PLoS ONE, 2015).
Screen size: about 310,000 compounds; about 2,200 (0.71%) showed an effect of 50% or more. Effects have a minus sign here. The list shows a part of the results.

Target: human ether-à-go-go-related gene (hERG) potassium channel (human, UniProt Q12809)
Assay: primary screen, population patch clamp on CHO cells stably expressing hERG

Chain of human ether-à-go-go-related gene (hERG) potassium channel (Q12809 whole entry, looked up): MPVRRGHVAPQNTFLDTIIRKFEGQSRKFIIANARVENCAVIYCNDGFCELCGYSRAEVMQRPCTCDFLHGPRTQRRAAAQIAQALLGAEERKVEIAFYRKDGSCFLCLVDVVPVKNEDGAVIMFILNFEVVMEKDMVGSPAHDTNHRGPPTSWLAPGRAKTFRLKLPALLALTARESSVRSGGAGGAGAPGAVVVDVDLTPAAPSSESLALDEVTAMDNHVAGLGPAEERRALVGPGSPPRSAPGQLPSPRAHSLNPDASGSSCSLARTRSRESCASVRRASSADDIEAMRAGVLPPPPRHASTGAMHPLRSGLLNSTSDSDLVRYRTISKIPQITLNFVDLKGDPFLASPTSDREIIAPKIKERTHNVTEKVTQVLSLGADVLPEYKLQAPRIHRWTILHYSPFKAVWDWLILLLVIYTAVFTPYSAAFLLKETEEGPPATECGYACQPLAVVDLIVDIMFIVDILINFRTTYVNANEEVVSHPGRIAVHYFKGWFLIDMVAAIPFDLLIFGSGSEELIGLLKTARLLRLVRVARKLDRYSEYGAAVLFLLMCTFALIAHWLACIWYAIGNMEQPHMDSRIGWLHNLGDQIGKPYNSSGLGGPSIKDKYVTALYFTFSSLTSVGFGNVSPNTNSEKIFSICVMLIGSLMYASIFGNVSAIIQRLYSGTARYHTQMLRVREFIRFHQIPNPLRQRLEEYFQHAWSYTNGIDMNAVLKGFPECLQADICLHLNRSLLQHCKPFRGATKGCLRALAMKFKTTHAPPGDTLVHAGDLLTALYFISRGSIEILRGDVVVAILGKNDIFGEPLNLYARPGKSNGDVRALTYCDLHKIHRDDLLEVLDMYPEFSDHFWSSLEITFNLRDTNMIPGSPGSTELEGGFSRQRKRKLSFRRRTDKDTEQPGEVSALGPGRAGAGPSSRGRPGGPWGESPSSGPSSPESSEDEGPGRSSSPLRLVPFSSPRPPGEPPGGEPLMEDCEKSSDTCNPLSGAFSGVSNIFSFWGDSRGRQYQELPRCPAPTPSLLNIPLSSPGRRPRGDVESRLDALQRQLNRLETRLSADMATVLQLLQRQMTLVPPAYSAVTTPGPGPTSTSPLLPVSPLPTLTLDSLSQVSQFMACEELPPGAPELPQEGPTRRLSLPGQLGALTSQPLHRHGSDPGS

SMILES | hERG current change (%, negative = inhibition) at 1uM
CCOC(=O)c1c(/N=C/c2cc(C)ccc2O)sc2c1CCC2 | 5.31%
CCCCNC(=O)CN(c1cc(C(F)(F)F)ccc1Cl)S(C)(=O)=O | -0.983%
O=C(NNc1cccc([N+](=O)[O-])c1)/C(=C\c1cccnc1)NC(=O)c1ccccc1 | 4.41%
C=CCn1c(-c2cccn(Cc3ccc(Cl)cc3Cl)c2=O)n[nH]c1=S | 9.51%
O=C(O)C1C2CCC(C2)C1C(=O)NCc1ccccn1 (stereo not drawn) | 11.7%
CSc1nc(N2CCOCC2)c2c(c1C#N)CC(C)(C)OC2 | 4.36%
COC(=O)c1ccccc1NC(=O)CNc1cc(Cl)ccc1N1CCOCC1 | -0.671%
C/C(=N\NC(=S)NC(C)C)c1ccc(-n2ccnc2)cc1 | 6.8%
CC1(C(=O)O)CCC(C(=O)Nc2ccc3ccccc3c2)C1(C)C (stereo not drawn) | 5.71%
CC1(C)c2[nH]c3ccccc3c2C[C@@H]2C(=O)N(c3ccc(F)cc3F)C(=O)N21 | 13.1%
COC(=O)/C(C#N)=C/c1c(Oc2cc(C)cc(C)c2)nc2ccccn2c1=O | 7.87%
CCOc1ccc(NS(=O)(=O)c2ccc(NC(=S)NC(=O)C(C)C)cc2)cc1 | 13.8%
COc1ccccc1N1C(=O)C=C(Sc2nc(C)cc(C)n2)C1=O | 13%
Cc1ccc(OCc2nnc(SCc3ccc(C#N)cc3)n2-c2ccc(C)cc2)cc1 | -4.05%
Cc1ccnc(-n2c(C)cc(C=O)c2C)c1 | 12.2%
CCCCCCC(C)OC(=O)Nc1cccc2ccccc12 (stereo not drawn) | 13.9%
O=C(CC(=O)c1cccc([N+](=O)[O-])c1)Nc1ccccc1Cl | -3.62%
COc1cc(NS(=O)(=O)c2ccc(NC(=O)Cc3ccccc3)cc2)nc(OC)n1 | 11.6%
Cc1ccc(-n2nc(CC#N)c(C#N)c2N)cc1Cl | 0.858%
COc1cc(C)c(CN2CCC(n3nccc3NC(=O)C3CC3)CC2)cc1C | -30.3%
COc1ccc(CC(=O)Nc2cccc3ccccc23)cc1OC | 7.9%
NS(=O)(=O)c1cc2c(cc1Cl)NCNS2(=O)=O | 2.46%
COc1cc2c(cc1OC)C(c1cccs1)N(C(=O)C(C)C)CC2 (stereo not drawn) | -2.58%

SMILES | hERG current change (%, negative = inhibition) at 1uM
CC1(C)CC(=O)C([N+](=O)[O-])=C(NCCCO)C1 | 12.8%
Cc1cc(C)n2ncc(C(=O)Nc3ccc(Cl)c(Cl)c3)c2n1 | 2.71%
CN1CCN(c2ccccc2NC(=O)c2ccc([N+](=O)[O-])o2)CC1 | -62.4%
COC(=O)Nc1c(C)n(C)n(-c2ccccc2)c1=O | 3.74%
c1ccc2c(-c3nc(-c4ccncc4)no3)cccc2c1 | 5.23%
O=C(c1ccc(CS(=O)c2cccc(Cl)c2)o1)N1CCCCCC1 (stereo not drawn) | 16.3%
Cn1cc(CN2CCC(n3nccc3NC(=O)c3ccccc3Cl)CC2)cn1 | -4.32%
Cc1ccc(OCc2nnc(-c3ccc(Cl)cc3)o2)cc1 | 12.1%
COc1ccc(CCNC(=O)CCSc2nc(-c3ccco3)cc(C(F)(F)F)n2)cc1OC | 7.25%
CC1Cc2cc(/C(O)=C3/C(=O)C(=O)N(Cc4cccnc4)C3c3cccc(O)c3)ccc2O1 (stereo not drawn) | 13.2%
Cc1ccc2cc(C)c(N3CCN(c4ccc(F)cc4)CC3)nc2c1 | 10.9%
COc1ccc(/C=N/NC(=O)COc2cccc3cccnc23)cc1OC | 10.3%
COc1ccc(S(=O)(=O)Nc2ccccc2-c2nnn(CC(=O)Nc3ccccc3OC)n2)cc1 | 6.52%
CCc1nnc(NC(=O)CSc2nnc(-c3ccccc3OC)n2-c2ccccc2)s1 | 5.93%
CC(CCc1ccccc1)NC(=O)COC(=O)c1cccn1C (stereo not drawn) | 9.38%
Cc1ccccc1C(=O)OC(C)CN1CCOCC1.Cl (stereo not drawn) | -1.51%
CC(C)c1ccc(S(=O)(=O)N2CCN(C(=O)CN3C(=O)NC(C)(c4ccccc4)C3=O)CC2)cc1 (stereo not drawn) | -1.1%
N#Cc1cc([N+](=O)[O-])ccc1N1CCN(c2ccccc2O)CC1 | 0.872%
CCCC(=O)Nc1ccc(NC(=O)c2cccs2)cn1 | 10.5%
O=C(N/N=C/c1ccccn1)NC12CC3CC(CC(C3)C1)C2 | 11.2%
CCOC(=O)c1ccccc1NC(=S)N1CCCCC1 | -2.53%
O=C(CCNS(=O)(=O)c1ccc(Br)s1)NCc1ccc(F)cc1 | 8.05%
